# Measurements: PubChem BioAssay (NCATS)
# Several values for one entry are separate records, joined by “and”; a condition that tells them apart may be missing. Identical values can stand only once. Inconclusive results, whose numbers are uncertain, are shown with a selection of clear calls. For some of these results: A potency beside an inconclusive call is a rough fit, not a confirmed value. Activity calls are given as the source filed them. The call rests on the fitted dose curve; in most records, active means well fitted curve in the direction sought with a large enough effect; inconclusive means small, poorly fitted or top-dose-only effect, or another doubt; inactive means no such curve, though single readings can be large; an effect the other way counts as inactive or inconclusive.
# Columns and labels:
# [1] = Viability qHTS for spleen associated tyrosine kinase inhibitor (SYKi) naive MV4-11 cells (AID 1963823); conditions: MV4-11 AML viability, CellTiter-Glo luminescence, 72 h; viability (% of control): at 45 µM (top of the series); further: nearly all actives have a fitted effect of over 40% in size; further: potency means the concentration at half of the fitted maximal effect
# Outline: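 Read-out: CellTiter-Glo luminescence. Exposure: 72 hr, 37 C, 5% CO2, 95% humidity. Cells: MV4-11 without SYK inhibitor history, 500/well, qHTS format.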
# [2] = Viability qHTS for spleen associated tyrosine kinase inhibitor (SYKi) drug resistant MV4-11 cells (AID 1963824); conditions: SYKi-resistant MV4-11 viability, CellTiter-Glo, 72 h; series mostly up to 45 µM; further: nearly all actives have a fitted effect of over 35% in size; further: potency means the concentration at half of the fitted maximal effect
# Outline: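 SYK inhibitor-resistant MV4-11 AML cells, 500 per well, added to predispensed compounds and incubated 72 hr at 37 C, 5% CO2. Viability measured by CellTiter-Glo luminescence after 10 min at room temperature.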
# [3] = Quantitative highthroughput screen to assess conditional lethalithy of P12 Ichikawa cells grown in Human Plasma-Like Medium with dialyzed fetal bovine serum (HPLM+ds) (AID 1963879); conditions: ATP luminescence, 48 h; Potency: viability; series mostly up to 45.8 µM; further: potency means the concentration at half of the fitted maximal effect; nearly all actives have a fitted effect of over 35% in size
# Outline: (§1)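 Each medium arm—HPLM with 10% dialyzed FBS, or RPMI1640 with 5 mM glucose and 10% untreated or dialyzed FBS—was screened against an 11-point, 3-fold compound titration for 48 h at 37 °C, with CellTiter-Glo luminescence as endpoint.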
# [4] = Quantitative highthroughput screen to assess conditional lethalithy of P12 Ichikawa cells grown in RPMI1640 with untreated serum (RPMI+s) (AID 1963881); conditions: ATP luminescence, 48 h; Potency: viability; series mostly up to 45.8 µM; further: nearly all actives have a fitted effect of over 35% in size; further: potency means the concentration at half of the fitted maximal effect;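 on Viability: 100% = DMSO wells and 0% = empty wells without cells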
# Outline: as §1
# [5] = Quantitative highthroughput screen to assess conditional lethalithy of SEM cells grown in RPMI1640 with dialyzed fetal bovine serum (RPMI+ds) (AID 1963884); conditions: SEM B-ALL cells, RPMI+dialyzed FBS, CellTiter-Glo viability, 48 h; viability: at 45.8 µM (top of the series); further: nearly all actives have a fitted effect of over 35% in size; further: potency means the concentration at half of the fitted maximal effect;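 on Viability: 100% = DMSO control wells and 0% = empty wells without cells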
# Outline: as §1
# [6] = Quantitative highthroughput screen to assess conditional lethalithy of P12 Ichikawa cells grown in RPMI1640 with dialyzed fetal bovine serum (RPMI+ds) (AID 1963880); conditions: ATP luminescence, 48 h; Potency: P12-Ichikawa viability; series mostly up to 45.8 µM; further: nearly all actives have a fitted effect of over 35% in size; further: potency means the concentration at half of the fitted maximal effect;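 on Viability: 100% = DMSO wells and 0% = empty wells on each plate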
# Outline: as §1
# [7] = Quantitative highthroughput screen to assess conditional lethalithy of SEM cells grown in Human Plasma-Like Medium with dialyzed fetal bovine serum (HPLM+ds) (AID 1963882); conditions: SEM B-ALL cells in HPLM+ds, CellTiter-Glo viability, 48 h; series mostly up to 45.8 µM; further: nearly all actives have a fitted effect of over 35% in size; further: potency means the concentration at half of the fitted maximal effect
# Outline: as §1
# [8] = Quantitative highthroughput screen to assess conditional lethalithy of SEM cells grown in RPMI1640 with unreated serum (RPMI+s) (AID 1963883); conditions: SEM B-ALL cells, CellTiter-Glo viability, 48 h; viability: at 45.8 µM (top of the series); further: nearly all actives have a fitted effect of over 35% in size; further: potency means the concentration at half of the fitted maximal effect;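 on Viability: 100% = DMSO wells and 0% = empty wells without cells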
# Outline: as §1
# [9] = Cellular viability qHTS for adrenocortical cancer (ACC) cell line SW-13 (AID 1963989); conditions: SW-13 ACC cells viability, CellTiter-Glo, 48 h; activity (max response): stronger effect = lower value;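 further: cells grown in serum-free medium with ITS supplement; on the % scale 0 is the no-effect control and ±100 the full control effect; nearly all actives have a fitted effect of over 65% in size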
# Outline: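 Viability was read as CellTiter-Glo luminescence after 48 h compound treatment (up to 46 uM final) of SW-13 cells grown serum-free; titration curves were fit with a four-parameter logistic model to give IC50 and efficacy.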
# [10] = Cellular viability qHTS for adrenocortical cancer (ACC) cell line NCI-H295R (AID 1963990); conditions: CellTiter-Glo ATP luminescence, 48 h; activity change, negative = viability loss: at 46.1 µM (top of the series); further: nearly all actives have a fitted effect of over 60% in size; further: potency means the concentration at half of the fitted maximal effect;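 on activity change, negative = viability loss: 0% = DMSO only wells and -100% = full killing with cytotoxic reference compound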
# Outline: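 CellTiter-Glo ATP luminescence, read 48 h after compound addition, measured viability of NCI-H295R adrenocortical cells grown serum-free with ITS. Final concentrations spanned up to 46 uM. Data normalized to DMSO and doxorubicin, fitted for IC50 and maximal response.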
# Tags describe the fitted curve by direction and shape.
smiles,measurement,setting,value
CC(C)(C)OC(=O)N[C@H]1CCCCCC=C[C@@H]2C[C@@]2(C(=O)NS(=O)(=O)C2CC2)NC(=O)[C@@H]2C[C@@H](OC(=O)N3Cc4cccc(F)c4C3)CN2C1=O,Potency,[1],"inconclusive: 20.6 µM [cytotoxic, single point]"
same,Potency,[2],"inconclusive: 20.9 µM [cytotoxic, partial curve]"
same,Potency,[3],"inconclusive: 20.9 µM [cytotoxic, partial curve, poor fit]"
same,Potency,[4],inactive
same,Potency,[5],inactive
CC1(C)CC(=O)c2c(C(F)(F)F)nn(-c3ccc(C(N)=O)c(NC4CCC(O)CC4)c3)c2C1 (stereo unspecified),Potency,[1],"inconclusive: 13 nM [cytotoxic, full curve] and active: 20.9 nM"
same,Potency,[2],"inconclusive: 20.6 nM [cytotoxic, full curve] and active: 33.2 nM"
same,Potency,[6],active: 0.148 µM
same,Potency,[4],active: 0.148 µM
same,Potency,[7],active: 0.148 µM
same,Potency,[8],active: 0.148 µM
same,Potency,[5],active: 0.148 µM
Cc1ccc(/C=N/NC(=O)c2ccccc2Oc2ccccc2)o1,Potency,[1],"inconclusive: 5.25 µM [cytotoxic, full curve]"
same,Potency,[2],"inconclusive: 9.34 µM [cytotoxic, full curve]"
same,Potency,[4],"inconclusive: 26.4 µM [cytotoxic, partial curve, poor fit]"
same,Potency,[8],inactive
same,Potency,[5],"inconclusive: 0.0013 µM [cytotoxic, full curve, poor fit]"
NC[C@H](O)c1ccc(O)c(O)c1,Potency,[1],"inconclusive: 20.9 µM [cytotoxic, partial curve]"
same,Potency,[2],"inconclusive: 23.5 µM [cytotoxic, partial curve]"
same,Potency,[4],inactive
same,Potency,[5],inactive
same,activity (max response),[9],inactive: -12.7% and inactive: 7.51%
same,Potency,[10],inactive
CCc1ccc(OCc2ccccc2C(=O)Nc2ccc3nc(C)cc(N)c3c2)cc1,Potency,[1],active: 1.66 µM
same,Potency,[2],active: 2.09 µM
same,Potency,[3],active: 9.35 µM
same,Potency,[8],active: 10.5 µM
CCOC(=O)c1ncn2c1CN(C)C(=O)c1cc(F)ccc1-2,Potency,[1],inactive
same,Potency,[2],inactive
same,Potency,[6],"inconclusive: 16.6 µM [cytotoxic, partial curve]"
same,Potency,[4],"inconclusive: 14.8 µM [cytotoxic, partial curve]"
same,Potency,[7],"inconclusive: 29.6 µM [cytotoxic, single point]"
same,Potency,[8],"inconclusive: 4.18 µM [cytotoxic, full curve]"
same,Potency,[5],"inconclusive: 16.6 µM [cytotoxic, partial curve]"
same,activity (max response),[9],inactive: 10.7% and inactive: 8.93%
O=C(Nc1cc(Cl)cc2c1[nH]c1cnccc12)c1cccnc1,Potency,[1],"inconclusive: 5.02 µM [cytotoxic, partial curve] and inconclusive: 4.56 µM [cytotoxic, full curve, poor fit]"
same,Potency,[2],"inconclusive: 9.1 µM [cytotoxic, partial curve, poor fit]"
same,Potency,[4],inactive
same,Potency,[7],inactive
same,Potency,[8],"inconclusive: 0.059 µM [rising, full curve, poor fit]"
same,Potency,[5],"inconclusive: 0.59 µM [rising, full curve, poor fit]"
same,Potency,[10],inactive
COC(=O)C1=C(C)NC(C)=C(C(=O)OC(C)C)C1c1cccc2nonc12 (stereo unspecified),Potency,[1],"inconclusive: 9.44 µM [cytotoxic, partial curve]"
same,Potency,[2],"inconclusive: 8.41 µM [cytotoxic, partial curve]"
same,Potency,[6],inactive
same,Potency,[5],inactive
same,Potency,[10],"inconclusive: 16.4 µM [cytotoxic, single point]"
Cn1cc(C[C@@H](N)C(=O)O)c2ccccc21,viability (% of control),[1],inactive: 69.9% [at 9.25 µM]
same,"viability, % of control",[2],inactive: 75.4% [at 9.25 µM]
same,Potency,[4],inactive
COc1ccccc1OCC(O)CN1CCN(CC(=O)Nc2c(C)cccc2C)CC1 (stereo unspecified),Potency,[1],"inactive and inconclusive: 23.5 µM [cytotoxic, single point]"
same,Potency,[2],"inconclusive: 335 nM [cytotoxic, partial curve, poor fit] and inconclusive: 16.6 µM [cytotoxic, partial curve]"
same,Potency,[6],inactive
same,Potency,[7],"inconclusive: 0.0026 µM [rising, full curve, poor fit]"
same,Potency,[8],inactive
same,Potency,[10],inactive
CC#CCn1c(N2CCC[C@@H](N)C2)nc2c1c(=O)n(Cc1nc(C)c3ccccc3n1)c(=O)n2C,Potency,[1],"inconclusive: 11.8 µM [cytotoxic, partial curve]"
same,Potency,[2],"inconclusive: 18.6 µM [cytotoxic, partial curve, poor fit]"
same,Potency,[4],inactive
same,Potency,[7],inactive
same,activity (max response),[9],inactive: 0.332%
